No constants are given. Whether binding was seen depends on the method and setting. In cells and extracts the contact can be indirect. Some entries that bind do so weakly or less than the wild type.

Sequences of proteins named here, by UniProt entry; tags and fusion partners are left off. A change or cut given only in a name is not applied to a line headed by its entry. A line that says so, or that is headed by a name, gives the form on record, which may keep a tag or linker.
UniProt O00443: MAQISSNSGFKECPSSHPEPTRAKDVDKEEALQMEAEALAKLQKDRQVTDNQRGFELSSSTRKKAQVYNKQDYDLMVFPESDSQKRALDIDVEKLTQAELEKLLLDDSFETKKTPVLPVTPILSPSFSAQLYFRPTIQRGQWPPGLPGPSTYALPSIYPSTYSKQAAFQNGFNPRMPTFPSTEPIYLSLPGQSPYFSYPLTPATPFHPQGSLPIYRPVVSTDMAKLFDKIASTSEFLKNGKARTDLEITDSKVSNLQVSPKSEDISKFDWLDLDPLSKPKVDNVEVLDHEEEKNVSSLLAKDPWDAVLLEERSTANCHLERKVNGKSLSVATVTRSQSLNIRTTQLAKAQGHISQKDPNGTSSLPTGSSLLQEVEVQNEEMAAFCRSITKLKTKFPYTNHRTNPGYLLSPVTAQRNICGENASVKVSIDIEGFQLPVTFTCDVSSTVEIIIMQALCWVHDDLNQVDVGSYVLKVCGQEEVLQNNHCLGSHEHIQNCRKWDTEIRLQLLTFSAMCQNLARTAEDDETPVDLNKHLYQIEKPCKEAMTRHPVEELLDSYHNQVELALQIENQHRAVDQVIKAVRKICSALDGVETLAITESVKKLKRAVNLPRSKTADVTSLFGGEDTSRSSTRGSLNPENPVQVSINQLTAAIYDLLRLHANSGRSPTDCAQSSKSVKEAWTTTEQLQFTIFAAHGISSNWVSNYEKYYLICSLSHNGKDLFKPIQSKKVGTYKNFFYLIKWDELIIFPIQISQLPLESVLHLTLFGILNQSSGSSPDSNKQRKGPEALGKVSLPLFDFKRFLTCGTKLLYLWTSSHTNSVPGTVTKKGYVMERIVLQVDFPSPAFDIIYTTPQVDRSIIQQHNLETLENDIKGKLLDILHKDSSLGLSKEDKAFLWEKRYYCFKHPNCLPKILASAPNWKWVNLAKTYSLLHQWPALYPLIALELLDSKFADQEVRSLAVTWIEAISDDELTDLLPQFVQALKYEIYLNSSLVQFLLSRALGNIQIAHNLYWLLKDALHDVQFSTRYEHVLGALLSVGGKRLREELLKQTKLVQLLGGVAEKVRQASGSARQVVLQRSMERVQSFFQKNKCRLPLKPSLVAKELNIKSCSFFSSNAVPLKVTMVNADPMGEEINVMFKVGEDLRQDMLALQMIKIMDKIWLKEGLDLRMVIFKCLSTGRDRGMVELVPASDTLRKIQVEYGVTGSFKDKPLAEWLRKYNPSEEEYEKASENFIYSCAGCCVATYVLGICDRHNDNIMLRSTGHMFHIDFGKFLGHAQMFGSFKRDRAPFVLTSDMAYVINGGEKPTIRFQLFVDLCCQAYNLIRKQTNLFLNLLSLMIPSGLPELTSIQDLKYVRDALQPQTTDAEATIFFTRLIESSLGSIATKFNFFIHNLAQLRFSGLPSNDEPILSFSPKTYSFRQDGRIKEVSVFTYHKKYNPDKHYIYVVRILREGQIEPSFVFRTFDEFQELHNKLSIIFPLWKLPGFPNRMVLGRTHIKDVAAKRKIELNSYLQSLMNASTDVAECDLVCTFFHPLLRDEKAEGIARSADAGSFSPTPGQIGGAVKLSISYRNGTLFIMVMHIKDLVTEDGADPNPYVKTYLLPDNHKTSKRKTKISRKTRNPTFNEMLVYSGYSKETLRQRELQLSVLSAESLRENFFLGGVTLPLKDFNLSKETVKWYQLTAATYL
Kinase-Dead PI3K-C2α (KD-V5-PI3K-C2α) (O00443, form named): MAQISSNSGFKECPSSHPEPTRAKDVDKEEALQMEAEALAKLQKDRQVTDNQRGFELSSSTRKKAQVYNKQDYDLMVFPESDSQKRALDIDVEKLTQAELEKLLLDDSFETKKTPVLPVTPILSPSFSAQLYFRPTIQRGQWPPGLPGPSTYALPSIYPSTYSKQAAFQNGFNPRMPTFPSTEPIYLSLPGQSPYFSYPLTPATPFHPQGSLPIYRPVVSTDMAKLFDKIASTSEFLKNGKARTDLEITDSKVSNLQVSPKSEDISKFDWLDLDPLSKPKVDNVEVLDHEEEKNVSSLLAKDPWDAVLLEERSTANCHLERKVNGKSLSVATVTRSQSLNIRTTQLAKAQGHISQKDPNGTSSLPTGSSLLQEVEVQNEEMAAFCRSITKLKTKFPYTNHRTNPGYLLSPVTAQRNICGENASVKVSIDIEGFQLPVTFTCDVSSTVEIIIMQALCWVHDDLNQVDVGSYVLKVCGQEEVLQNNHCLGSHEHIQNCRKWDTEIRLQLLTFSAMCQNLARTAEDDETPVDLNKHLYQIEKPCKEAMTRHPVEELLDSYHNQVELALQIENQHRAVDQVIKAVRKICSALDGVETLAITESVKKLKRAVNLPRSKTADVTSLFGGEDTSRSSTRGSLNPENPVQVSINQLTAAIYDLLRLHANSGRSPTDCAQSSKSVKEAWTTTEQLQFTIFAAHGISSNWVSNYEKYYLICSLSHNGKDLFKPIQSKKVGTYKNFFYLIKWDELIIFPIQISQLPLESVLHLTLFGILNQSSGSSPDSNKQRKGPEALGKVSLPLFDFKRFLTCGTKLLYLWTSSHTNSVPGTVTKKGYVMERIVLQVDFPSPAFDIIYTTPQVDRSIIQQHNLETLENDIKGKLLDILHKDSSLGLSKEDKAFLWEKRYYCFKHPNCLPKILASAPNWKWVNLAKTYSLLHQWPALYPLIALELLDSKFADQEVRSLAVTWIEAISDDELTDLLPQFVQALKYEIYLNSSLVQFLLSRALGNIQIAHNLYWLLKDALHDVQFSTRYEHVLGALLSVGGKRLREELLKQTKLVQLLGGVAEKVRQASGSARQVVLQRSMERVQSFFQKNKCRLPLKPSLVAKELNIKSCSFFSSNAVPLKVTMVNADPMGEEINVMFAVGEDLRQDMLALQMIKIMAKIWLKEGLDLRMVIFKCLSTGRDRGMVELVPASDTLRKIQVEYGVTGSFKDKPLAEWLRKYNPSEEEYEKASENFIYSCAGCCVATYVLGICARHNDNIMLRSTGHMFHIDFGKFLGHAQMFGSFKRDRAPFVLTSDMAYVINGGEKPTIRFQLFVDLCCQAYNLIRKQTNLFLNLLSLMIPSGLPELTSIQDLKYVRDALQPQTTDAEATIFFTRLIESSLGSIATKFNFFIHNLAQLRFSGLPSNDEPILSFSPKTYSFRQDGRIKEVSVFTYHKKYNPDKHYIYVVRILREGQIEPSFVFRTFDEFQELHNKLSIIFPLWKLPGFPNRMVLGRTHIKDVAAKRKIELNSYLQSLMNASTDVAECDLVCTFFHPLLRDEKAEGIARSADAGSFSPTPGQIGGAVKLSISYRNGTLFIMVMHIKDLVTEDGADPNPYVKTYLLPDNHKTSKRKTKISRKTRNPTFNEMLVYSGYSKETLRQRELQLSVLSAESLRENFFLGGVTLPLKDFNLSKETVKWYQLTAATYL
UniProt Q8NEB9: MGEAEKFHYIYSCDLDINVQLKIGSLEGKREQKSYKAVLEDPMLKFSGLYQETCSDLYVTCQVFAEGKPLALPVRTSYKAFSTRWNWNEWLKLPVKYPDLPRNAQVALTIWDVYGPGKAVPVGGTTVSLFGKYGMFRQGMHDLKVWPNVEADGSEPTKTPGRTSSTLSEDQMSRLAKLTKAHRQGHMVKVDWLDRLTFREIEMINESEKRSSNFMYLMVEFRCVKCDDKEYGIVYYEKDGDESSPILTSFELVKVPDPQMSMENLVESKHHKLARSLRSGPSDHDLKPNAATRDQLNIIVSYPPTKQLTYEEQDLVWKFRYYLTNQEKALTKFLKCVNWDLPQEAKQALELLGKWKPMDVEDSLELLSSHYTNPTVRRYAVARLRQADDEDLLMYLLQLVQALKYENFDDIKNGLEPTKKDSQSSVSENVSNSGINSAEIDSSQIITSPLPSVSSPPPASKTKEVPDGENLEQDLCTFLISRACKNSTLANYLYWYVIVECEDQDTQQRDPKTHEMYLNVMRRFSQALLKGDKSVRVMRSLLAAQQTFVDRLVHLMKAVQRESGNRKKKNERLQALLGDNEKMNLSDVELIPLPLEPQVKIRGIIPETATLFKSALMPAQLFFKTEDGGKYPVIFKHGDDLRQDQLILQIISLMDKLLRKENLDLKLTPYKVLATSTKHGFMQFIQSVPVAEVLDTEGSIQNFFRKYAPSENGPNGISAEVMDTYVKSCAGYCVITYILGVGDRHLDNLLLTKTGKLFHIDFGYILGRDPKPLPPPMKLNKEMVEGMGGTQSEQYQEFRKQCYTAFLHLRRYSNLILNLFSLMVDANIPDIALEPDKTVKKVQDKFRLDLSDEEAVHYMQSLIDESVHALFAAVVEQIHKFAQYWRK
UniProt Q6ZNE5: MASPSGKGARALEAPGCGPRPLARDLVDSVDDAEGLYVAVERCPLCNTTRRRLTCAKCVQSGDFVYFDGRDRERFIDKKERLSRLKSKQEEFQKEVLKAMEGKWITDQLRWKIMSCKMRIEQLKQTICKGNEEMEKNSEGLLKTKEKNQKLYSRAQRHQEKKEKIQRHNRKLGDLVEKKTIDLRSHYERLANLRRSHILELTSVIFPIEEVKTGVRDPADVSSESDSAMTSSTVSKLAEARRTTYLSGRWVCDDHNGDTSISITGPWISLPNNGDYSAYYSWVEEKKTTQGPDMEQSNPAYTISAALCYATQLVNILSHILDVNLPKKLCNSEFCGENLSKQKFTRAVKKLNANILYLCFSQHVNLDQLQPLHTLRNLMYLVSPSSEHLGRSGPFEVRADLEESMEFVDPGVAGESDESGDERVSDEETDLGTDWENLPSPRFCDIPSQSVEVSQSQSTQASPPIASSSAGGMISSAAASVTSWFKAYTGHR
UniProt Q00610: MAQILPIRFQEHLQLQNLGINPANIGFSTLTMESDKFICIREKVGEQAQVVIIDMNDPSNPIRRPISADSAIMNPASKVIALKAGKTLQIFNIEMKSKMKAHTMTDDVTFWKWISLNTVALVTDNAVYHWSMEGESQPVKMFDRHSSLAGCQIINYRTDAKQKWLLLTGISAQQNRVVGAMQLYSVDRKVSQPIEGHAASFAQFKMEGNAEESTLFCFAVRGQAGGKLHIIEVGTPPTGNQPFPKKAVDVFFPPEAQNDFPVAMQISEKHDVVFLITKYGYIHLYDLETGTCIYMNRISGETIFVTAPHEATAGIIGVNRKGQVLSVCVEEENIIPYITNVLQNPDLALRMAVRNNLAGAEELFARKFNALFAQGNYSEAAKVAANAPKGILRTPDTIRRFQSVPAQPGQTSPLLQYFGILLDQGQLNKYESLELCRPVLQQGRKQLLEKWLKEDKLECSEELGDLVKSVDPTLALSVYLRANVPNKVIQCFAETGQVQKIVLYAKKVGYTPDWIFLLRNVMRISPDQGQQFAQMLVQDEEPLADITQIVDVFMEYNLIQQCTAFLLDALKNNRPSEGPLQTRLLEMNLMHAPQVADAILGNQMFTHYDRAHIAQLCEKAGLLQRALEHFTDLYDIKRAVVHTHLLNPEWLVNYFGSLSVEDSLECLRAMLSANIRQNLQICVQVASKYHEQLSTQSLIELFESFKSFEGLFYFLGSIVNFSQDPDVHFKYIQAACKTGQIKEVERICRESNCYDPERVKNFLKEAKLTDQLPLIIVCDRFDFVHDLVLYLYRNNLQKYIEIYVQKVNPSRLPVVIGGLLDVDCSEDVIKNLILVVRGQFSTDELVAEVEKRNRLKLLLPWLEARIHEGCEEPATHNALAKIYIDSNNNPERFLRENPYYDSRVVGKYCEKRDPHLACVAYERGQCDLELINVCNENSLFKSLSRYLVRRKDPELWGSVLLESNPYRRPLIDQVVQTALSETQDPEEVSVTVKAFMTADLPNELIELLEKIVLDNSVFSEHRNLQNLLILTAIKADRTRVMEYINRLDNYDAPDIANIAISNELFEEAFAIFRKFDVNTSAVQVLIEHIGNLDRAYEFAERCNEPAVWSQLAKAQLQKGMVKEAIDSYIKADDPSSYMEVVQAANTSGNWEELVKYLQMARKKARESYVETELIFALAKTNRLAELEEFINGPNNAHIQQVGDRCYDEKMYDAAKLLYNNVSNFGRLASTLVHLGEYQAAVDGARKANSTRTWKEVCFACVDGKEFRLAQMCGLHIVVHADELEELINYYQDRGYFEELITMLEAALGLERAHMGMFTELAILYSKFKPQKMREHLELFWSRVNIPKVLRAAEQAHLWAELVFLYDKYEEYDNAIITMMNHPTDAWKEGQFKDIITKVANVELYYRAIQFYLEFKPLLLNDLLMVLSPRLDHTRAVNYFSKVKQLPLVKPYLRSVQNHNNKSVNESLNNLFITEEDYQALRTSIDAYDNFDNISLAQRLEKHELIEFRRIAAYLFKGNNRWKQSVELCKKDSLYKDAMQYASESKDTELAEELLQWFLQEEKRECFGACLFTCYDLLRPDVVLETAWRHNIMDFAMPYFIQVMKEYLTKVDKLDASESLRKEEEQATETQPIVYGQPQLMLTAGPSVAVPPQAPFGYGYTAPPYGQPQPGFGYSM

Holding throughout (experiment): co-IP; V5 antibody (1 μg) on Dynabead-protein G; supernatant of lysed transfected 293FT cells added overnight at 4°C; beads washed with 1x PBS, 0.1% Triton X-100; Western blot of endogenous proteins
Experiment [1] has as its target Kinase-Dead PI3K-C2α (KD-V5-PI3K-C2α) (human) (UniProt O00443).
For experiment [2], the target named is V5-PI3K-C2α (phosphatidylinositol-4-phosphate 3-kinase catalytic subunit type 2 alpha) (human) (UniProt O00443).
For experiment [3], the target named is V5-PI3K-C3 (phosphatidylinositol 3-kinase catalytic subunit type 3) (human) (UniProt Q8NEB9).

For the molecule ATG14L (from UniProt Q6ZNE5 1-492), the binding result in experiment [1] and in experiment [2] was “binds” in each case.
Turning to “PI3K-C2α (endogenous) (from UniProt O00443 1-1686) (enzyme)”, in experiment [3], the binding entry is given as “no binding”.
With clathrin (from UniProt Q00610 1-1675), the binding entry in experiment [1], in experiment [2] and in experiment [3] was “binds” in each case.

B1: ATG9A (Autophagy Related Protein 9) (protein, UniProt Q7Z3C6 1-839)
chain: MAQFDTEYQRLEASYSDSPPGEEDLLVHVAEGSKSPWHHIENLDLFFSRVYNLHQKNGFTCMLIGEIFELMQFLFVVAFTTFLVSCVDYDILFANKMVNHSLHPTEPVKVTLPDAFLPAQVCSARIQENGSLITILVIAGVFWIHRLIKFIYNICCYWEIHSFYLHALRIPMSALPYCTWQEVQARIVQTQKEHQICIHKRELTELDIYHRILRFQNYMVALVNKSLLPLRFRLPGLGEAVFFTRGLKYNFELILFWGPGSLFLNEWSLKAEYKRGGQRLELAQRLSNRILWIGIANFLLCPLILIWQILYAFFSYAEVLKREPGALGARCWSLYGRCYLRHFNELEHELQSRLNRGYKPASKYMNCFLSPLLTLLAKNGAFFAGSILAVLIALTIYDEDVLAVEHVLTTVTLLGVTVTVCRSFIPDQHMVFCPEQLLRVILAHIHYMPDHWQGNAHRSQTRDEFAQLFQYKAVFILEELLSPIVTPLILIFCLRPRALEIIDFFRNFTVEVVGVGDTCSFAQMDVRQHGHPQWLSAGQTEASVYQQAEDGKTELSLMHFAITNPGWQPPRESTAFLGFLKEQVQRDGAAASLAQGGLLPENALFTSIQSLQSESEPLSLIANVVAGSSCRGPPLPRDLQGSRHRAEVASALRSFSPLQPGQAPTGRAHSTMTGSGVDARTASSGSSVWEGQLQSLVLSEYASTEMSLHALYMHQLHKQQAQAEPERHVWHRRESDESGESAPDEGGEGARAPQSIPRSASYPCAAPRPGAPETTALHGGFQRRYGGITDPGTVPRVPSHFSRLPLGGWAEDGQSASRHPEPVPEEGSEDELPPQVHKV
Turning to B1, the binding entry in experiment [1], in experiment [2] and in experiment [3] was “binds” in each case.

Values taken from paper PMC5599018.
